# Publication PMC4336329 (PLoS ONE, 2015)
# In all, about 310,000 compounds went through this assay and about 14,000 (4.5%) showed an effect of 50% or more. Effects have a minus sign here. The list shows a part of the results.
# Biological target: human ether-à-go-go-related gene (hERG) potassium channel (human, UniProt Q12809)
# Assay: primary screen, population patch clamp on CHO cells stably expressing hERG
# 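Note: peak tail current of the secondary pulse compared with the same well before compound.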
# Chain of human ether-à-go-go-related gene (hERG) potassium channel (Q12809 whole entry, looked up): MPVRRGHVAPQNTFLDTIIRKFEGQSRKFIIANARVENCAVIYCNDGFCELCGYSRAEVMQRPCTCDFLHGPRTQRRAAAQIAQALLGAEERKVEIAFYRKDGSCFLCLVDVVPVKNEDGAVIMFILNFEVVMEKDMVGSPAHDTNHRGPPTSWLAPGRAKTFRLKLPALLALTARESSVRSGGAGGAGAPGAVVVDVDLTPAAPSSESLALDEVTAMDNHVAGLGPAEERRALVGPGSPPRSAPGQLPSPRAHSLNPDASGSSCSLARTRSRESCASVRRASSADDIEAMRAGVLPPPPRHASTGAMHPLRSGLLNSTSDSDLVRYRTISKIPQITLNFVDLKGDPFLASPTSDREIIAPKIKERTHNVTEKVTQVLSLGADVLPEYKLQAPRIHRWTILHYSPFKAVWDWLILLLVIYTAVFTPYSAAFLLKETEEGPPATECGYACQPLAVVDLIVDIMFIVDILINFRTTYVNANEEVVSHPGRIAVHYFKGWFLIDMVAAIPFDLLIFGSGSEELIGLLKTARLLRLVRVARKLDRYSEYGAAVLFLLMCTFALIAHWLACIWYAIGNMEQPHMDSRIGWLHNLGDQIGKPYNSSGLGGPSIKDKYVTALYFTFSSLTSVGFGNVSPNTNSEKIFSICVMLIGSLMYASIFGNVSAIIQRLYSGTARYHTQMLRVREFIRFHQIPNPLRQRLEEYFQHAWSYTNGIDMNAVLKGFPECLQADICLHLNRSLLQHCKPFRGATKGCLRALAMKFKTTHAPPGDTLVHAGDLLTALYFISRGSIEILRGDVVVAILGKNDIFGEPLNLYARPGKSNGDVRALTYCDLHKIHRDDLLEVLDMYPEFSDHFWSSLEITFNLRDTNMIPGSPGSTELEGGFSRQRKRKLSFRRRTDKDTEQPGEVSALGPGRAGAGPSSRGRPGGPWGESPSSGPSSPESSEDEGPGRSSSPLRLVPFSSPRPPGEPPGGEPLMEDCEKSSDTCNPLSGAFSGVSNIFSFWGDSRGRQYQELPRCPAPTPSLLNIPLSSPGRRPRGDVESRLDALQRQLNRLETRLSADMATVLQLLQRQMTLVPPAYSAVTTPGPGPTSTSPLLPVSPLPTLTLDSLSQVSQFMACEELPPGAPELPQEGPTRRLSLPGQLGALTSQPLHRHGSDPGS
row,Compound,"hERG current change (%, negative = inhibition) at 10uM"
1,Cc1nn(Cc2ccc(Cl)cc2)c(C)c1NC(=O)c1noc2c1CCc1ccccc1-2,-9.78%
2,COc1cc(C(=O)Nc2sc3c(c2C(=O)O)CCC(C)C3)cc(OC)c1OC (centres unmarked),18.9%
3,Cc1ccc(/C=N/NC(=O)c2ccncc2)s1,19.7%
4,NC(=O)CC1SC(N)=NC1=O (centres unmarked),-12.4%
5,CC(C)Cn1cc(C(=O)N2CCOCC2)c2c3ccccc3n(C)c2c1=O,-39.4%
6,CC(C)CN1C(=O)C(=O)N(CC(=O)N(C)CC(=O)Nc2ccc(Cl)c(C(F)(F)F)c2)C1=O,-12.3%
7,CC1CCN(C(=O)c2cc3c(=O)n4ccccc4nc3s2)CC1,18.7%
8,CCOC(=O)C1(CCc2ccccc2)CCN(Cc2ccn[nH]2)CC1,-72.5%
9,Cc1ccc(-c2cc(N)nc(-c3ccccc3)c2)cc1,7.26%
10,Cc1ccc(CNC(=O)C(=O)c2cn(CC(=O)N3CCCC3)c3ccccc23)cc1,8.02%
11,Cc1ccc(CN2C(=O)CSC2c2ccc(F)cc2)cc1 (centres unmarked),-3.99%
12,CCOC(=O)C1CCN(Cc2ccc(F)cc2F)CC1,6.65%
13,CCCC(=O)Nc1nnc(S(=O)(=O)N2CCCC2)s1,10.3%
14,O=C1/C(=C\c2ccc([N+](=O)[O-])cc2)N2CCC1CC2,-37.1%
15,COc1ccc(NS(=O)(=O)c2cccc(C(=O)NNC(=O)CNC(=O)c3ccco3)c2)cc1,12.8%
16,COc1ccc(-c2ccc(/C=C(\NC(=O)c3ccccc3)C(=O)N3CCOCC3)o2)cc1,-24.1%
17,O=C(CCn1c2c(c3ccccc31)CCCC2)NNC(=O)c1cccc([N+](=O)[O-])c1,-2.35%
18,O=c1o[nH]c(-c2ccccc2)c1C1=NCCCCC1,-4.67%
19,CCN(CC)S(=O)(=O)c1ccc(NC(=O)c2ccccc2N(C)S(C)(=O)=O)cc1,-8.8%
20,CC(=O)NNC(=O)c1csc(-c2csc(C)n2)n1,6.85%
21,COc1ccc(CCNS(=O)(=O)CC23CCC(CC2=O)C3(C)C)cc1OC (centres unmarked),10.6%
22,CN(CC(=O)Nc1ccc(F)c(F)c1F)C(=O)C1CC(=O)N(c2ccc3c(c2)OCCO3)C1 (centres unmarked),-14.4%
23,COc1ccc(C(CC(=O)O)NC(=O)c2ccccc2)cc1OC (centres unmarked),-3.86%

row,Compound,"hERG current change (%, negative = inhibition) at 10uM"
1,CCCOc1ccc(NC(=O)CC2C(=O)N(C)C(=S)N2Cc2cccs2)cc1 (centres unmarked),-9.24%
2,C/C(N)=C(/C#N)C(=O)CSc1n[nH]c(-c2cccs2)n1,9.72%
3,O=C(COC(=O)c1ccc[nH]c1=O)NCC1CCCO1 (centres unmarked),8.98%
4,COC(=O)COc1ccc(C(c2c(C)[nH][nH]c2=O)c2c(C)[nH][nH]c2=O)cc1,15.1%
5,O=S(=O)(CCc1ccccc1)/N=C/c1cccs1,1.21%
6,COc1cc(/C=N/NC(=O)Cn2c([N+](=O)[O-])cnc2C)ccc1OC(=O)N(C)C,12%
7,CCOc1ccc(NC(=O)CSc2nc3nc(C)cc(C)n3n2)cc1,-4.89%
8,C/C(=N\NC(=O)C1CCCN(S(=O)(=O)c2ccccc2)C1)c1ccncc1 (centres unmarked),-26.2%
9,O=C1c2ccccc2S(=O)(=O)N1CCOc1ccc(F)cc1,-27.6%
10,Cc1c(CCOC(=O)C23CC4CC(CC(C4)C2)C3)sc[n+]1CC#N.[Cl-],6.74%
11,O=C(/C=C/c1ccc2c(c1)OCO2)NCCSCc1cccc(Cl)c1,-14.5%
12,Cc1nc2ccccc2c2c1C(=O)N(C)C2=O,-24.2%
13,Cc1ccc(NC(=S)NNC(=S)Nc2ccc(C)cc2C)cc1,22.3%
14,Cc1c(Cl)c([N+](=O)[O-])nn1CCCC(=O)Nc1c(Cl)cccc1Cl,-8.29%
15,CCc1ccc2nc(N3CCN(C)CC3)c(C#N)cc2c1,-54.3%
16,CCOC(=O)N1CCN(C(=O)c2ccc3oc(CCCc4ccccc4)nc3c2)CC1,-47.5%
17,COc1ccccc1C1=NCc2nnc(CSC)n2-c2ccc(Cl)cc21,-19.1%
18,CCOc1ccc2nc(NS(C)(=O)=O)sc2c1,17.8%
19,Cc1cccc(NC(=O)CN2CCC(C(=O)c3ccc4c(c3)OCCO4)CC2)c1,-54.2%
20,COC(=O)c1sc2cc([N+](=O)[O-])cc(SCC(C)C)c2c1N,9.06%
21,Cc1cc(N2C(=O)C(O)=C(C(=O)c3ccc(C)o3)C2c2cccs2)no1 (centres unmarked),3.86%
22,CCCCCCCCCC(=O)N1CCN(c2cc3c(cc2F)c(=O)c(C(=O)O)cn3CC)CC1,12.2%
23,CCOc1ccc(N2C(=O)CC(N(Cc3ccco3)C(C)=O)C2=O)cc1 (centres unmarked),0.345%

row,Compound,"hERG current change (%, negative = inhibition) at 10uM"
1,CCN(CC)C(=O)COc1cc(C)c(Cl)c(C)c1,-5.91%
2,CCC(NC(=O)c1ccccc1O)c1ccccc1 (centres unmarked),-33.3%
3,N#C/C(=N\Nc1ccc(Cl)cc1)C(N)=S,16%
4,O=C(CCOc1ccccc1)NCc1ccccc1,-3.68%
5,Cc1cccc2cc(CN(Cc3cccnc3)C(=O)c3ccncc3)c(=O)[nH]c12,-12.1%
6,O=C(c1ccc(Cl)cc1)c1cnc(-c2ccc(Cl)cc2)s1,-3.48%
7,Cc1ccc(NC(=O)COC(=O)C2CC(=O)N(Cc3ccccc3)C2)cc1F (centres unmarked),0.175%
8,O=C(OCC(=O)N1CCN(C(=O)c2ccco2)CC1)c1ccccc1,10.4%
9,CC1(C)C(=O)Nc2ccccc2N1C(=O)COC(=O)/C=C/c1ccc(OC(F)F)cc1,26.4%
10,Cc1cc2nc(SCCN3CCOCC3)[nH]c2cc1C,12.3%
11,COC(=O)c1ccc(-c2cc(CC3(C(=O)OC)CCN(C(=O)OC(C)(C)C)CC3)on2)cc1,-17.9%
12,C[C@@H]1[C@H](O)C[C@@]23COC(=O)C2=CCCC3[C@@]1(C)CCC1COC(=O)C1 (some centres unmarked),-13.4%
13,O=C(Nc1cccc2ncccc12)c1ccccc1F,15.7%
14,CCCCCCc1nc2c(=O)[nH]c3ccccc3c2o1,12.5%
15,OCC1(CCOc2ccccc2)CCN(Cc2ccc3c(c2)OCCO3)CC1,-75.1%
16,N#CC1(NC(=O)COC(=O)CSc2ccc(F)cc2)CCCCC1,11.7%
17,O=C(O)[C@H]1CCCC[C@H]1C(=O)Nc1ccc(S(=O)(=O)N2CCOCC2)cc1,11.2%
18,Cc1ccc(NC(=O)C2CCC(CNc3c(N4CCC(C)CC4)c(=O)c3=O)CC2)cc1F (centres unmarked),14.3%
19,O=C(NCCc1ccccn1)c1cc2ccccc2o1,21.5%
20,O=C(Nc1ccc(S(=O)(=O)Nc2ncccn2)cc1)c1ccccc1Br,0.459%
21,O=C(Nc1ccccc1)c1cc2ccccc2c(=O)s1,3.74%
22,Cc1ccc(NC(=O)CN(C)S(=O)(=O)c2cccc3nsnc23)cc1C,15.9%
23,COc1ccc(S(=O)(=O)N(C)C)cc1NC(C)C(=O)Nc1cccc(C#N)c1 (centres unmarked),-23.5%

row,Compound,"hERG current change (%, negative = inhibition) at 10uM"
1,CC(=O)Nc1ccc(S(=O)(=O)NCCC(=O)OCCN2C(=O)c3ccccc3C2=O)cc1,6.14%
2,Clc1ccc(-n2nnnc2CN2CCCCC2)cc1Cl,-5.69%
3,CC(=O)C1=C(O)C(=O)N(Cc2ccccc2)C1c1ccc(Br)cc1 (centres unmarked),6.34%
4,COC1(C2=NCCN2)COc2ccccc2O1.Cl (centres unmarked),17.3%
5,O=C(COc1ccc(S(=O)(=O)N2CCCC2)cc1)N1CCCCC1,12.3%
6,Cc1ccc2nc(-c3ccccn3)cc(C(=O)Nc3ccc4c(c3)OCO4)c2c1,20.6%
7,Cc1cc(N2CCN(C)CC2)nc2ccc(NC(=O)CCC3CCCC3)cc12,-74.6%
8,CCC(=O)Oc1ccc(C(=O)Nc2ccc3c(c2)OCO3)cc1,16.5%
9,O=C(Oc1c(Cl)cc(Cl)c2cccnc12)N1CCOCC1,-9.04%
10,CCC(C(=O)NCc1cccc(C)c1)n1nc(C)c2c(C)n(-c3ccccc3)nc2c1=O (centres unmarked),-21.8%
11,CCOc1ccc(CCNC(=O)COC(=O)c2ccc(S(C)(=O)=O)cc2)cc1OCC,7.31%
12,CCC1CCCCN1C(=O)CCn1c(=O)oc2ccccc21 (centres unmarked),-17.7%
13,COCCNC(=O)c1ccc(Cl)c(S(=O)(=O)Nc2cccc(C)c2C)c1,-5.86%
14,Cc1cc(C)cc(NC(=O)CSc2nncn2-c2ccccn2)c1,0.338%
15,COc1cc(OC)c2ccc(=O)oc2c1C(CC(=O)N1CCOCC1)c1ccc2c(c1)OCO2 (centres unmarked),-0.731%
16,C/C(=N\NC(=O)C(NC(=O)c1ccccc1)C(C)C)c1ccccc1 (centres unmarked),21.2%
17,CSc1ccc(CN(C)C(=O)CSCC(=O)Nc2ccc(C)cc2)cc1,-73%
18,Cc1ccnc(NC(=O)CCC(=O)c2cc(C)sc2C)c1,11.5%
19,CN(c1ccccc1)S(=O)(=O)c1ccc(C(=O)N2CCCC(C(F)(F)F)C2)cc1 (centres unmarked),5.9%
20,CCCn1c(SCC(=O)Nc2cc(C)on2)nc2c1c(=O)n(C)c(=O)n2C,-4.46%
